Data published in PubChem BioAssay AID1452 (National Center for Advancing Translational Sciences (NCATS), 2008).
Screen size: about 150,000 compounds; about 190 (0.13%) were called active. The inconclusive results got no clear call from the source; some entries with a clear call stand among them for comparison. Calls follow the shape of the dose curve; as a rule, active = well fitted inhibition curve with a large enough effect; inconclusive = small, poorly fitted or top-dose-only effect; inactive = flat fitted curve, though single readings scatter. A potency beside an inconclusive call is a rough fit, not a confirmed value.
% is scaled to controls: 0 for no effect and ±100 for the full control effect; potency is read from the fitted curve at half-maximal effect; tags tell the direction and shape of the fitted curve.
Also: nearly all actives have a fitted effect of over 55% in size.

What follows are molecules tested against Polyunsaturated fatty acid lipoxygenase ALOX12 (Homo sapiens) (UniProt P18054) (assay: qHTS Assay for Inhibitors of 12-hLO (12-human lipoxygenase)). Settings: purified 12-hLO, xylenol orange hydroperoxide absorbance; series mostly up to 57.1 µM.
Sequence of UniProt P18054 (P18054 whole entry, looked up): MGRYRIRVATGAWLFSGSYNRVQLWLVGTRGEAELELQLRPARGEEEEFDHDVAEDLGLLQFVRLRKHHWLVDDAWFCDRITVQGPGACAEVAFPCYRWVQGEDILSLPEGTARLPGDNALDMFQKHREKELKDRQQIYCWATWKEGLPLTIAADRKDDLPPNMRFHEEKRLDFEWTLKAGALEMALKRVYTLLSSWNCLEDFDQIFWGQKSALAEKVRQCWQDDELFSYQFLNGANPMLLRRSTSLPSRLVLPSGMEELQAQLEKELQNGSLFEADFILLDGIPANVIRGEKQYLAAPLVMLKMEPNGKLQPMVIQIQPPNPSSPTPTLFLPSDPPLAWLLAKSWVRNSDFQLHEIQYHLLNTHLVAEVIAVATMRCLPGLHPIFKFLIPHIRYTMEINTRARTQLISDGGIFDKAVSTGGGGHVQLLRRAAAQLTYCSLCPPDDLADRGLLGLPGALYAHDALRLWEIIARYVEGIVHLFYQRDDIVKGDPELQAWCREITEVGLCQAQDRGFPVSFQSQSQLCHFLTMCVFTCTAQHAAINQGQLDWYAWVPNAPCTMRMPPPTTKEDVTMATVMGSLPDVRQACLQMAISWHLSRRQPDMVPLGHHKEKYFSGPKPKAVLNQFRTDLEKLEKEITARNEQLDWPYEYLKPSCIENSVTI
Method in brief: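 150 nM 12hLO, 25 mM Hepes pH 7.0 + 0.01% Triton X-100; cpd preinc 15 min RT; 40 uM arachidonic acid, 30 min RT; Fe-XO 30 min; A573/A405 ratio as read-out.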
With `COc1cccc(Nc2nc(C)cc(C)c2C#N)c1` the Potency was “inactive”.
`CCOc1ccc(CC(=O)Nc2sc(Cc3ccccc3)c(C)c2C(N)=O)cc1OCC` was tested, and the Potency was “inactive”.
With `O=C(N/N=C/c1ccc(F)cc1)c1cc(-c2ccco2)nc2ccccc12` the Potency was inconclusive: 12.6 µM [inhibitor, partial curve].
With `CC1N(C)c2cccc3cccc(c23)N1C` the Potency was inconclusive: 20 µM [inhibitor, single point].
With `CC(OC(=O)c1ccc2ncsc2c1)C(=O)Nc1ncc(Cl)cc1Cl` (stereo not drawn) the Potency was “inactive”.
With `CC(=O)N1CCN(c2ccc(NCc3ccc4c(c3)OCO4)cc2)CC1` the Potency was inconclusive: 35.5 µM [inhibitor, single point].
With `CSc1nnc(-c2ccccc2N=Cc2c(C)[nH]n(-c3ccc4ccccc4c3)c2=O)c(=O)[nH]1` the Potency was inconclusive: 39.8 µM [inhibitor, single point].
In the case of `O=C(Oc1ccc(Cl)c2cccnc12)c1cccc([N+](=O)[O-])c1`, the Potency is reported as inconclusive: 0.447 µM [inhibitor, full curve, poor fit].
For `O=S(=O)(Nc1nc2ccc(S(=O)(=O)N3CCCCC3)cc2s1)c1ccccc1`, the Potency was “inactive”.
With `C=CCN(CC=C)S(=O)(=O)c1ccc(NC(=S)NC(=O)/C=C/c2ccccc2)cc1` the Potency was inconclusive: 25.1 µM [inhibitor, single point].
In the case of `O=C(COC(=O)c1cc(-c2ccc(Cl)s2)nc2ccccc12)NCc1ccco1`, the Potency is reported as “inactive”.
In the case of `CCOC(=O)N1CCN(c2c(F)cc3[nH]c(=S)[nH]c3c2Br)CC1`, the Potency is reported as inconclusive: 31.6 µM [inhibitor, single point].
With `Cc1ccc(NC(=O)CSc2nnc(-c3ccco3)c(-c3ccco3)n2)cc1` the Potency was inconclusive: 17.8 µM [inhibitor, partial curve].
With `CCOc1ccc2[nH]c(=O)c(CN(Cc3nnnn3Cc3ccco3)C3CCCCC3)cc2c1` the Potency was inconclusive: 15.8 µM [inhibitor, partial curve].
In the case of `Cc1ccc(NC(=O)Cn2c(=O)oc3cc(S(=O)(=O)N4CCC(C)CC4)ccc32)cc1C`, the Potency is reported as inconclusive: 12.6 µM [inhibitor, partial curve].
For `CCc1ccc(OCC(=O)OCC(=O)c2ccc3c(c2)NC(=O)CO3)cc1`, the Potency was “inactive”.
In the case of `O=C(NC(Cc1ccc2c(c1)OCO2)C(=O)N1CCCC1C(=O)O)c1ccccc1` (stereo not drawn), the Potency is reported as “inactive”.
With `CCOc1ccc(NC(=S)N(Cc2ccc(Cl)cc2)Cc2ccco2)cc1` the Potency was inconclusive: 15.8 µM [inhibitor, partial curve].
In the case of `CC(C)C(NC(=S)Nc1ccccc1)C(=O)O` (stereo not drawn), the Potency is reported as “inactive”.
`Oc1c(CN2CCCCC2)cc(Br)c2cccnc12` was tested, and the Potency was inconclusive: 5.01 µM [inhibitor, partial curve].
`CCSC1=NC2(CCCCC2)Nc2sc3c(c21)CCCC3` was tested, and the Potency was inconclusive: 25.1 µM [inhibitor, partial curve].
In the case of `CCOC(=O)N1CCN(S(=O)(=O)c2cc(C)c(C)cc2C)CC1`, the Potency is reported as “inactive”.
With `c1ccc(-c2nnc(CSc3nnc(-c4cccs4)o3)o2)cc1` the Potency was “inactive”.
For `C=CCn1c(N)c(C(=O)NCc2ccco2)sc1=S`, the Potency was inconclusive: 7.08 µM [inhibitor, single point].
With `N#CC(c1nc2ccccc2nc1N1CCCC1)S(=O)(=O)c1cccs1` (stereo not drawn) the Potency was inconclusive: 39.8 µM [inhibitor, single point].
For `COc1ccc(-c2c(C)nn(-c3ccccc3)c2N)cc1OC`, the Potency was “inactive”.
In the case of `O=C(Cn1c(O)c(/C=C2\C=Nc3ccccc32)sc1=O)Nc1ccc2c(c1)OCO2`, the Potency is reported as “inactive”.
With `CCOC(=O)c1ccc(NC(=S)NCCC2=CCCCC2)cc1` the Potency was active: 25.1 µM.
With `COc1cccc(/C=N/NC(=O)C(=O)N2CCCC2)c1O` the Potency was inconclusive: 25.1 µM [inhibitor, partial curve, poor fit].
In the case of `COc1cccc(C(=O)Nc2ccc(NC(C)=O)cc2)c1`, the Potency is reported as “inactive”.
`O=C(O)CCC(=O)c1ccc[nH]1` was tested, and the activity change, negative = inhibition was inactive: 1.51% [at 11.4 µM].
In the case of `Cc1cccc(NC(=S)NN(Cc2ccccc2)c2ccccc2)c1C`, the Potency is reported as inconclusive: 22.4 µM [inhibitor, partial curve].
In the case of `N#CC1=C(N)Oc2cc(O)ccc2C1C1CCCCC1` (stereo not drawn), the Potency is reported as inconclusive: 28.2 µM [inhibitor, partial curve].
For `COc1cc(OC)cc(C(=O)NC(=S)Nc2ccc(Cl)c(C(=O)O)c2)c1`, the Potency was inconclusive: 20 µM [inhibitor, single point].
For `S=C(NCc1ccco1)Nc1ccc(Cl)c(Cl)c1`, the Potency was active: 17.8 µM.
With `COc1ccc(-c2cc(=O)c3c(O)cc(O[C@H]4OC(COC5OC(C)C(O)C(O)[C@H]5O)C(O)C(O)C4O)cc3o2)cc1O` (stereo partly drawn) the Potency was “inactive”.
`COc1cc(OC)cc(C(=O)NC(=S)NCCc2ccccc2)c1` was tested, and the Potency was active: 3.98 µM.
In the case of `Clc1ccc(Cc2nnc(-c3ccccc3Br)o2)cc1`, the Potency is reported as “inactive”.
With `CCOC(=O)c1c(C)oc2c1c(C(c1cccnc1)N1CCOCC1)c(O)c1ccccc12` (stereo not drawn) the Potency was inconclusive: 8.91 µM [inhibitor, partial curve].
In the case of `C/C(=N\NC(=S)NCc1ccccc1)c1ccc2ccccc2c1`, the Potency is reported as inconclusive: 22.4 µM [inhibitor, single point].
In the case of `CC1OC(n2cc(F)c(=O)[nH]c2=O)C(O)C1O` (stereo not drawn), the Potency is reported as “inactive”.
`Cc1nn(CCO)c2nc(-c3cccs3)cc(C(F)(F)F)c12` was tested, and the Potency was “inactive”.
In the case of `Cc1ccc(N2C(=O)CS/C2=C(\C(Cl)=C(Cl)Cl)[N+](=O)[O-])cc1`, the Potency is reported as inconclusive: 11.2 µM [inhibitor, partial curve].
For `COc1ccc2c(c1)c(C(O)CN1CCC(Cc3ccccc3)CC1)c(C)n2C` (stereo not drawn), the Potency was inconclusive: 39.8 µM [inhibitor, single point].
In the case of `Cn1ccnc1C(O)c1cc(C(C)(C)C)c(O)c(C(C)(C)C)c1` (stereo not drawn), the Potency is reported as inconclusive: 7.94 µM [inhibitor, partial curve].
`COc1ccc(-c2cc(-c3ccccc3O)[nH]n2)cc1` was tested, and the Potency was inconclusive: 14.1 µM [inhibitor, partial curve].
`CCCOc1ccc(C2NC(=S)NC(c3ccccc3)=C2C(=O)Nc2ccc(C)cc2)cc1OC` (stereo not drawn) was tested, and the Potency was active: 14.1 µM.
For `CCCCn1c(/N=C/c2c[nH]c3ccccc23)nc2ccccc21`, the Potency was inconclusive: 28.2 µM [inhibitor, single point].
